Assay results from the supplement of paper PMC12217912.
The list shows a part of the results. Sequences were assembled here from the parent chain. Inactive controls read about 0.05.

B1: TEV protease; numbered along this chain (parent)
chain: MGESLFKGPRDYNPISSSICHLTNESDGHTTSLYGIGFGPFIITNKHLFRRNNGTLVVQSLHGVFKVKDTTTLQQHLVDGRDMIIIRMPKDFPPFPQKLKFREPQREERICLVTTNFQTKSMSSMVSDTSCTFPSGDGIFWKHWIQTKDGQCGSPLVSTRDGFIVGIHSASNFTNTNNYFTSVPKNFMELLTNQEAQQWVSGWRLNADSVLWGGHKVFMVKPEEPFQPVKEATQL

Variants of: B1
Experiment: raw area under fraction-flipped curve 0-4 h after induction (AUC4h, not background-subtracted), DNA-recorder readout of cleavage of the substrate (dimensionless); higher = more cleavage of the substrate by the protease variant
Details: temperature: 34 °C; time window: 0-4 h after rhamnose induction
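Further: Bxb1 expression induced with 0.2% (w/v) L-rhamnose at OD600 near 0.5, cultures sampled hourly, flipped fraction per protease–substrate barcode pair counted by paired-end Illumina sequencing.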

| Variant | area with substrate ENLYFQC | area with substrate ENLYFQF | area with substrate ENLYFQI | area with substrate ENLYFQK | area with substrate ENLYFQL | area with substrate ENLYFQM | area with substrate ENLYFQN | area with substrate ENLYFQS | area with substrate ENLYFQT | area with substrate ENLYFQY | area with substrate ENLYFQG | area with substrate ENLYFQW | area with substrate ENLYFQD | area with substrate ENLYFQE | area with substrate ENLYFQH | area with substrate ENLYFQQ | area with substrate ENLYFQR | area with substrate ENLYFQP | area with substrate ENLYFQV |
| --- | --- | --- | --- | --- | --- | --- | --- | --- | --- | --- | --- | --- | --- | --- | --- | --- | --- | --- | --- |
| MGESLFKGPRDYNPISSSICHLTNESDGHTTSLYGIGFGPFIITNKHLFRRNNGTLVVQSLHGVFKVKDTTTLQQHLVDGRDMIIIRMPKDFPPFPQKLKFREPQREERICLVTTNFQTKSMSSMVSCTSCTFPSGDGIFWKHWIQTKDGQCGSPLVSTRDGFIVGIHSASNFTNTNNYFTSVPKNFMELLTNQEAQQWVSGWRLNADSVLWGGHKVFMVKPEEPFQPVKEATQL [D128C] | 0.153 | 0.101 | 0.0344 | 0.0808 | 0.0518 | 0.0872 | 0.084 | 0.127 | 0.0612 | 0.0751 |  |  |  |  |  |  |  |  |  |
| MGESLFKGPRDYNPISSSICHLTNESDGHTTSLYGIGFGPFIITNKHLFRRNNGTLVVQSLHGVFKVKDTTTLQQHLVDGRDMIIIRMPKDFPPFPQKLKFREPQREERICLVTTNFQTKSMSSMVSWTSCTFPSGDGIFWKHWIQTKDGQCGSPLVSTRDGFIVGIHSASNFTNTNNYFTSVPKNFMELLTNQEAQQWVSGWRLNADSVLWGGHKVFMVKPEEPFQPVKEATQL [D128W] | 0.229 | 0.119 | 0.0593 | 0.0707 | 0.056 | 0.169 | 0.111 | 0.202 | 0.0408 |  | 0.202 | 0.0822 |  |  |  |  |  |  |  |
| MGESLFKGPRDYNPISSSICHLTNESDGHTTSLYGIGFGPFIITNKHLFRRNNGTLVVQSLHGVFKVKDTTTLQQHLVDGRDMIIIRMPKDFPPFPQKLKFREPQREERICLVTTNFQTKSMSSMVSYTSCTFPSGDGIFWKHWIQTKDGQCGSPLVSTRDGFIVGIHSASNFTNTNNYFTSVPKNFMELLTNQEAQQWVSGWRLNADSVLWGGHKVFMVKPEEPFQPVKEATQL [D128Y] | 0.174 |  |  | 0.0572 |  | 0.128 |  | 0.14 |  | 0.119 | 0.187 | 0.0567 | 0.0819 | 0.0646 | 0.0771 | 0.102 | 0.071 |  |  |
| MGESLFKGPRDYNPISSSICHLTNESDGHTTSLYGIGFGPFIITNKHLFRRNNGTLVVQSLHGVFKVKDTTTLQQHLVDGRDMIIIRMPKDFPPFPQKLKFREPQREERICLVTTNFQTKSMSSMVSDTSCTFPSNDGIFWKHWIQTKDGQCGSPLVSTRDGFIVGIHSASNFTNTNNYFTSVPKNFMELLTNQEAQQWVSGWRLNADSVLWGGHKVFMVKPEEPFQPVKEATQL [G136N] | 0.095 |  | 0.058 |  | 0.0626 | 0.106 | 0.107 | 0.112 | 0.0737 | 0.0921 | 0.0735 | 0.0684 | 0.0744 |  |  |  | 0.0613 | 0.0686 | 0.0633 |
| MGESLFKGPRDYNPISSSICHLTNESDGHTTSLYGIGFGPFIITNKHLFRRNNGTLVVQSLHGVFKVKDTTTLQQHLVDGRDMIIIRMPKDFPPFPQKLKFREPQREERICLVTTNFQTKSMSSMVSDTSCTFPSLDGIFWKHWIQTKDGQCGSPLVSTRDGFIVGIHSASNFTNTNNYFTSVPKNFMELLTNQEAQQWVSGWRLNADSVLWGGHKVFMVKPEEPFQPVKEATQL [G136L] | 0.113 | 0.0739 | 0.0579 | 0.0678 | 0.0545 |  | 0.104 | 0.104 | 0.0702 |  | 0.113 | 0.0716 | 0.0597 |  | 0.0882 | 0.0705 | 0.061 |  | 0.0767 |
| MGESLFKGPRDYNPISSSICHLTNESDGHTTSLYGIGFGPFIITNKHLFRRNNGTLVVQSLHGVFKVKDTTTLQQHLVDGRDMIIIRMPKDFPPFPQKLKFREPQREERICYVTTNFQTKSMSSMVSDTSCTFPSGDGIFWKHWIQTKDGQCGSPLVSTRDGFIVGIHSASNFTNTNNYFTSVPKNFMELLTNQEAQQWVSGWRLNADSVLWGGHKVFMVKPEEPFQPVKEATQL [L112Y] | 0.067 | 0.0443 | 0.052 |  | 0.0631 |  | 0.069 | 0.0705 |  | 0.0656 | 0.0584 | 0.0568 | 0.0541 |  |  |  | 0.0513 | 0.0519 |  |
| MGESLFKGPRDYNPISSSICHLTNESDGHTTSLYGIGFGPFIITNKHLFRRNNGTLVVQSLHGVFKVKDTTTLQQHLVDGRDMIIIRMPKDFPPFPQKLKFREPQREERICIVTTNFQTKSMSSMVSDTSCTFPSGDGIFWKHWIQTKDGQCGSPLVSTRDGFIVGIHSASNFTNTNNYFTSVPKNFMELLTNQEAQQWVSGWRLNADSVLWGGHKVFMVKPEEPFQPVKEATQL [L112I] | 0.092 | 0.0547 |  |  | 0.0696 |  | 0.0797 | 0.0992 | 0.0685 | 0.0843 | 0.0899 | 0.0416 | 0.0612 | 0.0673 |  |  | 0.0571 | 0.0668 |  |
| MGESLFKGPRDYNPISSSICHLTNESDGHTTSLYGIGFGPFIITNKHLFRRNNGTLVVQSLHGVFKVKDTTTLQQHLVDGRDMIIIRMPKDFPPFPQKLKFREPQREERICLVTTNFQTGSMSSMVSDTSCTFPSGDGIFWKHWIQTKDGQCGSPLVSTRDGFIVGIHSASNFTNTNNYFTSVPKNFMELLTNQEAQQWVSGWRLNADSVLWGGHKVFMVKPEEPFQPVKEATQL [K120G] | 0.113 | 0.0763 | 0.0507 | 0.0462 | 0.0614 | 0.132 | 0.0444 | 0.0973 | 0.0606 |  |  | 0.067 | 0.0682 |  |  |  | 0.0616 | 0.0489 |  |
| MGESLFKGPRDYNPISSSICHLTNESDGHTTSLYGIGFGPFIITNKHLFRRNNGTLVVQSLHGVFKVKDTTTLQQHLVDGRDMIIIRMPKDFPPFPQKLKFREPQREERICLVTTNNQTKSMSSMVSDTSCTFPSGDGIFWKHWIQTKDGQCGSPLVSTRDGFIVGIHSASNFTNTNNYFTSVPKNFMELLTNQEAQQWVSGWRLNADSVLWGGHKVFMVKPEEPFQPVKEATQL [F117N] | 0.107 | 0.0664 | 0.0666 | 0.0567 |  | 0.0951 | 0.0984 | 0.102 | 0.0808 | 0.0791 |  | 0.0482 |  |  |  | 0.0754 | 0.0736 | 0.0648 | 0.0657 |
